From ChEMBL document CHEMBL1156829 come the findings set out here.

Molecules are shown by their SMILES. Whole data set: some 5,400 compounds, median “IFI” near 2, cut for the highest 2% near 22. This is one part of the list.

The test is described as follows: NOVARTIS: Inhibition Frequency Index (IFI) - the number of HTS assays where a compound showed > 50% inhibition/induction, expressed as a percentage of the number of assays in which the compound was tested. The format is functional.
In turn, `CCOC(=O)C1=C(C)NC2=C(C(=O)CC(c3ccc(OC)c(OC)c3)C2)C1c1ccc(Cl)cc1Cl` (configuration not stated) came in with an IFI of 8.23%. In turn, `CCCC(=O)N1CCN(c2nc(Cc3ccccc3)c3c(c2C#N)CC(C)(C)OC3)CC1` showed an IFI of 4.54%.

`CCOC(=O)C1=C(C)N/C(=C\c2cc(C)n(-c3ccc(C)cc3)c2C)C1=O` registered an IFI of 0%. Under `CCN1/C(=C/c2sc3ccc(OC)cc3[n+]2CC)C=Cc2cc(C)ccc21` stands 23.1%; under `CN(C)c1ccc(C=CC=Cc2cc[n+](C)cc2)cc1`, 12.4%; under `CCOC(=O)c1ccc2nc3c(nc2c1)C(=O)c1ccccc1C3=O`, 21.9%. Under `CCn1c(SCCCCNC(=O)c2cc([N+](=O)[O-])cc([N+](=O)[O-])c2)nc(-c2ccccc2)c1-c1ccccc1` stands 1.85%; under `CC(=O)N1CCc2cc(Br)cc(S(=O)(=O)N(CC(C)C)CC(C)C)c21`, 0%; under `CC(C)CNC(=O)c1cnc(NCCCN2CCCCC2C)nc1NCCc1ccccc1` (configuration not stated), 3.74%. `CC(=O)N/C(=C\c1ccc(OC(F)F)cc1)C(=O)O` displayed an IFI of 1.01%. Under `N=C(NN=Cc1cccc([N+](=O)[O-])c1)SC1CC(=O)N(c2cc(Cl)ccc2Cl)C1=O` (configuration not stated) stands 0%. On to `COc1cc(C(=O)NC(c2cccs2)c2cc(Cl)c3cccnc3c2O)cc(OC)c1OC` (configuration not stated), for which the IFI was found to be 0%. As for `Brc1ccc2[nH]c3c(NCCCN4CCOCC4)ncnc3c2c1`, the IFI came out at 7.84%.

In turn, `Oc1ccc(-c2cncnc2)cc1CNC1CCN(Cc2ccccc2)CC1` registered an IFI of 1.01%.

The compound `Cc1cccc(NC(=O)Nc2cccnc2)c1NC(=O)Nc1cccnc1` yielded an IFI of 0%. For `O=C(NCc1ccccc1C(F)(F)F)C1CC(O)CN1C(=O)Nc1ccccc1` (configuration not stated), the IFI was determined as 0%. Under `O=C(NN=Cc1cccc(Cl)c1)C1COc2ccccc2O1` (configuration not stated) stands 0%. Under `COc1ccc(S(=O)(=O)NCCCCNc2ccnc3cc(Cl)ccc23)cc1` stands 3.74%; under `CN(CCCNc1ccnc2cc(Cl)ccc12)C(=O)C1C[C@H]1c1ccccc1` (some centres not stated), 8.49%.

For the compound `Cc1cccc(-n2nc3c(c2NC(=O)c2ccc4c(c2)OCO4)CS(=O)(=O)C3)c1C`, the IFI came to 3.45%.

For the compound `COc1ccc(C2C(C(=O)Nc3cc(Cl)c(OC)cc3OC)c3ccccc3C(=O)N2C)cc1` (configuration not stated), the IFI is 0%. Under `Cc1noc(-c2ccc(O)cc2O)c1-c1ccc2c(c1)OCCCO2` stands 3.57%. Compound `CCc1nnc2n1N(C(C)=O)C(c1ccc(Cl)c(Cl)c1)=C(C(C)=O)S2` registered an IFI of 0%. Under `S=C(NC1CCCCC1)NC1CC2CCC(C1)N2Cc1ccccc1` (configuration not stated) stands 1.27%. Under `Cc1cc(Nc2ccc(Cl)cc2)nc(NCc2ccccc2)n1` stands 4.62%; under `CCN(C(=O)CSc1nc(-c2ccc(C(C)C)cc2)no1)c1cccc(C)c1`, 0%; under `O=C(Cc1ccsc1)N1CCOc2c(cc(-c3csc4ccccc34)cc2OCCc2ccccn2)C1`, 1.94%. Compound `CC(C)CNc1nc(NCCCN2CCCCC2C)ncc1C(=O)NCCc1ccccc1` (configuration not stated) returned an IFI of 3.85%.

`CCOC(=O)c1c(C)oc2c1C(=O)c1ccccc1C2=O`: the IFI stood at 3.17%.

For `COc1cc(OC)c(NC(=O)C2c3ccccc3C(=O)N(C)C2c2ccc(OC)c(OC)c2)cc1Cl` (configuration not stated), the IFI turned out to be 0%.

Turning to `CCNC1=C(C(=O)c2ccccc2)N(CC(=O)c2ccc(Br)cc2)S(=O)(=O)c2ccccc21`, the IFI amounted to 7.69%. Under `CC(=O)N1CCNC1=Nc1c(Cl)nc(C)nc1Cl` stands 0%; under `O=[N+]([O-])c1ccc(NN=Cc2cccs2)c(S(=O)(=O)N2CCCCCC2)c1`, 0%; under `O=C(CN1CCC(NC(=O)c2cccc(F)c2)CC1)NC1CC1`, 1.59%. Under `COc1cc2c(cc1OC)C(COc1ccc(F)cc1)N(C(=O)c1ccc(OC(C)C)cc1)CC2` (configuration not stated) stands 0%. Under `CCn1c(/C=C/N(C)c2ccccc2)[n+](CC)c2cc(Cl)ccc21` stands 6.25%; under `CN(C)c1ccc(N=C2NC(=O)/C(=C/c3ccc(Cl)cc3)S2)cc1`, 0%; under `Cn1cc(/C=C/c2cc[n+](C)cc2)c2ccccc21`, 5.56%. As for `O=C1N(Cc2cc3ccccc3s2)CC2CN(Cc3ccoc3)CCN12` (configuration not stated), the IFI worked out at 1.41%.

With `CCOc1ccccc1CN1CCCC(C(=O)N2CCCCCC2)C1` (configuration not stated), the IFI came out at 0%. Under `COc1cc(OC)cc(C(=O)N(C)CCCNc2ccnc3cc(Cl)ccc23)c1` stands 1.87%; under `CC1CCN(C2=C(NC3CCCC3)C(=O)c3ccccc3C2=O)CC1`, 14.3%; under `COC(=O)C1=C(C)NC2=C(C(=O)CC(c3ccc(OC)c(OC)c3)C2)C1c1ccccc1Br` (configuration not stated), 4.82%. Under `CCOC(=O)c1ccc(N2CCN(c3cc(C)ccc3C)CC2)c(NC(=O)Nc2ccc(Cl)cc2)c1` stands 0%; under `O=C1N(Cc2cc3ccccc3s2)CC2CN(Cc3ccsc3)CCN12` (configuration not stated), 1.39%; under `Cc1ccc(NC(=O)C2c3ccccc3C(=O)N(CC(C)C)C2c2cccs2)c(Cl)c1` (configuration not stated), 3.23%.

Take `CC(C)CN(C(C(=O)NC(CN1CCCC1)c1ccccc1)c1ccccc1)S(=O)(=O)c1ccccn1` (configuration not stated): the IFI came to 1.96%. Under `CC1=C(CO)C(=O)O[C@@H]([C@@H](C)[C@H]2CC[C@H]3[C@@H]4C[C@H]5O[C@]56[C@@H](O)C=CC(=O)[C@]6(C)C4CC[C@]23C)C1` (some centres not stated) stands 32.1%; under `CCOC(=O)C1CCN(C(c2cc3cc(OC)c(OC)cc3[nH]c2=O)c2nnnn2C(C)(C)C)CC1` (configuration not stated), 5.21%. Turning to `C=CCn1cc(C=NNc2nc3ccccc3[nH]2)c2ccccc21`, the IFI was found to be 15.4%. `COc1ccc2ccccc2c1C1CC(=O)N2CN(Cc3ccco3)CSC2=C1C#N` (configuration not stated) displayed an IFI of 0%. Under `CCOC(=O)c1c(C)[nH]c2c1cc(O)c1ccccc12` stands 3.11%; under `COc1cccc(-c2ccc(O)c(CN(C)C3CCCCC3)c2)n1`, 2.63%. Under `N#Cc1c(N)nc2sc(C(=O)Nc3ccc(Br)cc3)c(N)c2c1-c1ccccc1` stands 1.51%; under `CCC(CC)CN1CCC(O)(c2ccc3oc(C(=O)Nc4ccc5c(c4)OCO5)cc3c2)CC1`, 3.48%; under `COc1ccc(C)cc1-n1c(-c2ccc(Cl)cc2)cc2c1CC(C)(C)CC2=O`, 0%.

`S=C(NN=CC=NNC(=S)Nc1ccccc1)Nc1ccccc1` yielded an IFI of 14.3%. `CC(=O)OCC(=O)[C@@]1(O)CCC2C3CCC4=CC(=O)CC[C@]4(C)C3[C@@H](O)C[C@@]21C` (some centres not stated) displayed an IFI of 0.769%.

`O=C1CN(C(=O)CCC2CCCC2)C(c2ccc(F)cc2)c2cc(Cl)ccc2N1` (configuration not stated) gave an IFI of 2.94%. Under `CC(=O)Nc1ccc(NS(=O)(=O)c2cc([N+](=O)[O-])ccc2Cl)cc1` stands 0%; under `O=C(c1ccc2c(c1)OCO2)N1CCOC(c2ccc(Cl)cc2)C1` (configuration not stated), 1.37%. `CC[n+]1c(/C=C/C=C2\N(C)c3ccccc3C2(C)C)n(Cc2ccccc2)c2ccccc21` returned an IFI of 32.6%.
